The supplement of paper PMC3334620
Whole data set: some 33,000 sequences, median “E-score (-0.5 to 0.5)” near -0.041, cut for the highest 2% near 0.37. The list shows a part of the results.

Each sequence was assayed against T1, Ecm22 (UniProt Q05958) (assay: PBM E-score (8-mer binding enrichment) (E-score (-0.5 to 0.5)); higher = stronger / more preferred TF binding; most listed sequences are background and not binding sites). Conditions: protein concentration: 200 nM; construct: GST-full length.
T1 sequence: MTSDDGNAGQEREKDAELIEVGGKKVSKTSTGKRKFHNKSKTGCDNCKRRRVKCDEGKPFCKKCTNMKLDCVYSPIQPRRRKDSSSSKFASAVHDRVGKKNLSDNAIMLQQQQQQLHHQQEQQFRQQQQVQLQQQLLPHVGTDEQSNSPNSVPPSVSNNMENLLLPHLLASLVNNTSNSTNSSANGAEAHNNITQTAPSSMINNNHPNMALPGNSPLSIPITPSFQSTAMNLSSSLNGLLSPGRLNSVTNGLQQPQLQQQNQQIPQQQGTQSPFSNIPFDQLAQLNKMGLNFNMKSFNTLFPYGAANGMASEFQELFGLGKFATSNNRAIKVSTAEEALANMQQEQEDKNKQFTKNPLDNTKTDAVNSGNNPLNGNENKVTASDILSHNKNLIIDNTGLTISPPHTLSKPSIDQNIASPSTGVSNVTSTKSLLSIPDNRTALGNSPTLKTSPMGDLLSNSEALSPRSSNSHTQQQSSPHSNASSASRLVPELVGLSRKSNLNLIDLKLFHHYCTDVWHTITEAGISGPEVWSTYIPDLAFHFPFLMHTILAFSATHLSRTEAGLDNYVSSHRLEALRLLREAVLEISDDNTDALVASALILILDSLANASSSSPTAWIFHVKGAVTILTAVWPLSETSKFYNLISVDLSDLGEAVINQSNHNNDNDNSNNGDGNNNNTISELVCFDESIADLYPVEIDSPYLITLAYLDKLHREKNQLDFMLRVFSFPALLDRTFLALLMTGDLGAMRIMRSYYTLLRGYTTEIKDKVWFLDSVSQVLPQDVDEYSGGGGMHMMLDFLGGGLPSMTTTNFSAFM
In short: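 Yeast transcription factors, full-length or as DNA-binding domains, were expressed with a GST tag using PURExpress in vitro transcription/translation. At about 100-200 nM they were applied to universal all-10-mer Agilent arrays, double-stranded by primer extension on fresh or once-stripped slides. Fluorescent anti-GST detected bound protein, and masliner normalised the scans. E-scores for ungapped eight-base words, pooled with reverse complements, came from the Universal PBM Analysis Suite.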

Row | Sequence | PBM E-score
1 | CGCGCTAG | 0.0304
2 | GAGCACGA | 0.159
3 | ACTAATCG | 0.133
4 | GCCATACA | 0.133
5 | GATGATCA | 0.0913
6 | AGCTAGAT | -0.00182
7 | GGCCGTAA | 0.244
8 | ATAGGAGA | -0.0585
9 | CCCCTTGA | -0.173
10 | TAGGTTCA | 0.00453
11 | CGAGGCCC | 0.0788
12 | GGACAACC | 0.0333
13 | CCAACGTA | 0.194
14 | ATCCATGC | -0.11
15 | CCCTGAGA | -0.178
16 | ACTGTGCC | -0.244
17 | GGTTTAGA | -0.179
18 | AAGATCCG | 0.0903
19 | CTAACGAC | 0.282
20 | CGTAAGAC | 0.203
21 | TAGTATAA | 0.166
22 | GCGTCCCA | -0.156

Row | Sequence | PBM E-score
23 | AAAGCCCT | -0.251
24 | ATCTGGGG | -0.142
25 | TACGCAGA | 0.159
26 | TGAAACAA | 0.0186
27 | AACCTCCG | -0.0653
28 | ATTCACTA | -0.108
29 | TATATCGA | 0.131
30 | GAGCGGAC | 0.119
31 | GATGTGGC | -0.138
32 | CTCGCGTA | 0.317
33 | CCAGGACC | -0.178
34 | GTGTACCA | 0.0289
35 | CGAAAGCA | 0.203
36 | CATTGTCA | -0.0156
37 | GACTTCTC | -0.105
38 | ATAGGGTC | -0.187
39 | AGGTAGAC | -0.0732
40 | ACCATTAC | 0.149
41 | CCAACCCC | -0.22
42 | CAACGTGG | -0.0743
43 | TGCACCCA | -0.0185
44 | CGCGGGTA | 0.00857

Row | Sequence | PBM E-score
45 | AACGACTG | 0.393
46 | TTCCAAAA | -0.00821
47 | ATACTAGA | 0.042
48 | CACCTACG | -0.00657
49 | AGCTGCAT | -0.104
50 | AGTAGGAT | -0.043
51 | AAATTTCC | 0.0144
52 | ATGAGTTA | -0.0747
53 | CAGTGGCA | -0.302
54 | CAGAATTA | 0.00283
55 | AGGGATGA | -0.197
56 | ACAAATGT | 0.149
57 | GAGGAAGA | -0.0765
58 | CAGCAAGG | -0.197
59 | GTTCCATA | 0.108
60 | CCGCGCTA | 0.0135
61 | AATTGCAT | 0.0822
62 | ATCCTCTG | -0.0183
63 | CTAGATAA | -0.0387
64 | CGAAGTAA | 0.25
65 | ATGGCCCC | -0.209
66 | GCGATACA | 0.111

Row | Sequence | PBM E-score
67 | ACATCTGA | -0.172
68 | ATATCAAT | 0.0853
69 | ACGTGTAT | 0.031
70 | AACACTAG | -0.0879
71 | ATACGGCA | 0.404
72 | AGCCAGAG | -0.0877
73 | AGGTCACC | -0.24
74 | GACGTAGA | -0.0256
75 | CAATGTAG | -0.11
76 | ACCCAGCT | -0.0797
77 | ACGCCGGG | -0.101
78 | AGATCATG | -0.13
79 | AAGTGCAC | 0.0505
80 | CCTGTCTC | -0.177
81 | AATAATAC | 0.214
82 | GCGACTTA | 0.0663
83 | ACACGCTA | 0.0348
84 | AGTCATGA | -0.148
85 | CGATAAAG | 0.0902
86 | CTCCGTAC | 0.386
